The values below come from patent US9120774B2 (University of Kansas, priority 2009, dated 2015).

Structures are written as SMILES.

Data set [1] relates to SKBr3 breast cancer cell lines. Nature of the data set: Cell growth / cytotoxicity in SKBr3 cells (MTT). In kind it is cell-based. As to conditions: varying concentrations and time. The procedure:
FIG. 14 are graphs showing the percent of cytotoxicity of DHN1 and DHN2 on SKBr3 cells at varying concentrations and time.
N-terminal inhibitors of Hsp90 may induce the degradation of client proteins at concentrations that mirror that needed for anti-proliferative activity. Therefore, both DHN1 and DHN2 were evaluated for their ability to inhibit the growth of SKBr3 breast cancer cell lines. Cell growth was monitored using methylthiazol-tetrazolium (MTT). Briefly, cells (5×10^3) were plated in 96-well microtiter plates (Costar) in a volume of 0.1 mL DMEM containing 0.1% FBS. After 12 hours, cells were exposed to drugs (final volume 0.2 mL/well). At various times After drug addition, 20 μL of 5 mg/mL MTT solution in PBS was added to each well for four hours. After removal of medium, 0.1 mL of DMSO was added to each well to dissolve the formazan crystals. Absorbance at 562 nm was determined using an ELx 808 microplate reader (Bio-Tek, Winooski Vt.). Six wells were assayed at each concentration and the mean absorbance was determined. Absorbance at 562 nm is directly proportional to viable cell number.

In data set [2] the test system is primary cortical neurons exposed to Aβ25-35. Nature of the data set: Protection against Aβ-induced toxicity in primary neurons (Live-Dead assay). It is filed as cell-based. The note with it: Rattus norvegicus, Primary cortical neuron, read-out: EC50, prevention of Aβ-induced toxicity. How it is done:
In this example, the neuroprotective effects of KU-1/A4 were determined in primary neurons derived from embryonic rat brain exposed to Aβ (10 μM) in the presence or absence of the test compound for 48 hours. The percentage of surviving neurons was determined by labeling with the fluorescent dyes calcein-AM and propidium iodide as previously described. […] The numbers of calcein-labeled live cells and propidium iodide-labeled dead neurons in several fields were visualized via fluorescence microscopy and counted as described.
(§1) Briefly, about 10 to 16 brains were removed from fetuses delivered by cesarean section, and the cortices dissected out. […] The effects of KU-1/A4, GA, Aβ, or the indicated combinations on neuronal viability were determined by monitoring cell survival using the Live-Dead assay as previously described. […] Digital images from 6 fields per dish were captured, and the number of viable (green) and dead (red) cells counted. All experiments were conducted with duplicate dishes from at least two neuronal preparations for each treatment, with about 1,000 cells analyzed/treatment condition. The data are expressed as the fraction of viable cells calculated from the total number of neurons counted under each treatment condition. The significance of differences between cultures exposed to various treatment conditions was determined using Student's t-test.

For data set [3], the system named is experimental autoimmune encephalomyelitis (EAE). Nature of the data set: Experimental autoimmune encephalomyelitis (EAE) model.
The subject of a further data set is primary cortical neurons. Nature of the data set: Toxicity of drug alone in neuronal cells (Live-Dead assay). It is filed as cell-based. The note with it: rat.
Excerpt: as §1, with “More specifically, primary cortical neurons were recovered from embryonic day 18 rat brains as described previously (Michaelis et al., Immunological Localization And Kinetic Characterization Of A Na+/Ca2+Exchanger In Neuronal And Nonneuronal Cells, Brain Res. 661 104-116 (1994)). Briefly,” for “Briefly,”, “out. The neurons were isolated and suspended in DMEM/F12 supplemented with 10% FBS and plated on sterile dishes or cover slips coated with 10 μg/ml poly-D-lysine and 5 μg/ml mouse laminin.” for “out.”

The mark [4] stands for this setting: second study, late treatment regimen.

Regarding `COC1C(O)C(O)C(Oc2ccc3cc(NC(=O)c4ccc(O)c(CC=C(C)C)c4)c(=O)oc3c2C)OC1(C)C` (centres unmarked) [DHN2], the cytotoxicity entry in data set [1] was “neither treatment with DHN1 nor DHN2 resulted in substantial cytotoxicity”.

For `COC1C(O)C(O)C(Oc2ccc3cc(NC(C)=O)c(=O)oc3c2C)OC1(C)C` (centres unmarked) [KU-32], in data set [2], the EC50 is roughly 0.9 nM. The body weight loss entry in data set [3] (pilot study, compared to positive control mice) is “the magnitude of weight loss is less”. The “disease severity and relapse” value in data set [3] (second study, administration a week into the immunization protocol) is “reduced disease severity and inhibited disease relapse”. The clinical score result in data set [3] (second study, early treatment group, scale 0 to 5) is “around 0.5”. Besides, in data set [3] (second study, early treatment regimen (days 1, 3, 5, 7)), the “EAE disease onset and severity” value is on record as “no change in disease onset or disease severity”. Moreover, in data set [3] (second study, given early in the immunization protocol), the EAE disease relapse result was “reduced disease relapse”. In data set [3] (setting [4]), the clinical scores result is on record as “returned to baseline” and the duration of symptoms entry is recorded as “notably less than in the positive control group”. In addition, the onset of symptoms entry in data set [3] (second study, late treatment regimen (i.v. days 6, 8, 10, 12, 14)) is listed as “earlier onset of symptoms”.

Turning to `COC1=C2C[C@@H](C)C[C@H](OC)[C@H](O)[C@@H](C)/C=C(\C)[C@H](OC(N)=O)[C@@H](OC)/C=C\C=C(/C)C(=O)NC(=CC1=O)C2=O` [GDA, Geldanamycin, reference compound], the “concentrations at which the drug alone was toxic to neurons” value with primary cortical neurons was “above 20 nM”.
